Measured values reported in patent US12643954B2, “Anti-CD36 antibodies and their use to treat cancer” (ONA Therapeutics, S.L., priority 2020, dated 2026).

Test system: 4T1 cells
Assay: 4T1 orthotopic breast cancer model
Format: in vivo, mouse
Conditions: 10 mg/kg i.p. three times per week, day 22
Description: Studies of the effects of the 1G04 anti-CD36 antibody on breast cancer were performed in BALB/c mice (immuno-competent). The studies included only female mice. All mice were inoculated with commercially available 4T1 cancer cells (ATCC), transduced with a vector expressing luciferase. 4T1 cells were derived from murine mammary gland tissue (i.e. from a breast cancer). Prior to inoculation, 4T1 cells were cultured in a humidified incubator at 37° C. with 5% CO2, and were grown in RPMI medium supplemented with 5 μg ml^−1 penicillin/streptomycin, 2 mM L-Glutamine and 10% FBS (GIBCO).
For each mouse, 4×10^4 4T1 cells were inoculated orthotopically in the mammary fat pad. Treatment began 5 days after inoculation with 4T1 cells. Mice were divided into one of two treatment groups: vehicle injection control (n=10) or 1G04 treatment (n=10). Antibody treatments were administered via intraperitoneal (i.p.) injection at a dose of 10 mg/kg three times per week, while control mice received an equal volume of vehicle on the same schedule (FIG. 32B). Mice were sacrificed at the end of the treatment period (day 22). Upon sacrifice, organs and tissues were collected for performance of necropsy and ex-vivo IVIS.

B1: 1G04: chimeric ONA-0-v1 IgG1 LALA antibody; heavy chain SEQ ID NO: 21, light chain SEQ ID NO: 23 (antibody)
heavy: QVQLKQSGADLVRPGASVKLSCKASGYTFTDYYINWVKQRPGQGLEWIARIYPGSGNTYYNEKFKGKATLTAEKSSSTAYMQLSSLTSEDSAVYFCARGIGGGFGMDYWGQGTSVTVSS[skipping human IgG1 constant region with changes]
light: SIVMTQTPKFLLVSAGDRITITCKASQSVSDDVAWYQQKPGQSPKLLIYYASNRYTGVPDRFTGSGYGTDFTFTISTVQAEDLAVYFCQQDYSSPLTFGAGTKLEIKRTVAAPSVFIFPPSDEQLKSGTASVVCLLNNFYPREAKVQWKVDNALQSGNSQESVTEQDSKDSTYSLSSTLTLSKADYEKHKVYACEVTHQGLSSPVTKSFNRGEC
modifications: 1G04 heavy chain; 1G04 light chain; 1G06 light chain
**Q.** How did the “luminescence in the lungs (ex vivo)” value turn out when B1 was run?
**A.** 5.96*10^4
